Measurements as given in the supplement of paper PMC10126150.
Values marked as one replicate rest on one cluster of the flow cell; about a third of the high ones do not repeat.

Each sequence was assayed on ATP (assay: switch fluorescence ratio, 500 uM ATP over buffer (Cy3 cluster intensity, sum of 5 cycles each) (fold (ratio)); higher = stronger signal-on switching upon ATP binding; sequences stand for … in TCGTCGGCAGCGTCAGATGTGTATAAGAGACAGTTTTTTTTTTTTTTTTTTTTTTTTT…TC). Details: aptamer strand: ATP DNA aptamer (quencher-CACCTGGGGGAGTATTGCGGAGGAAGG + anchor), 100 nM annealed; ATP concentration: 500 uM; one replicate.
How it was run: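 Clusters with intensities outside 100-1000 RFU were excluded. The remaining Cy3-labelled switching-strand clusters on a modified Illumina MiSeq flow-cell had been annealed to 100 nM quencher-labelled ATP aptamer and imaged in selection buffer, then after 15 min with 500 uM ATP at 22 °C, for five cycles separated by NaOH stripping and re-annealing. The fluorescence ratio, averaged per switch-domain sequence, is each cluster's summed target-cycle Cy3 intensity over its summed buffer-cycle Cy3 intensity.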
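Also: ATP exposure 15 min at 22 °C before imaging.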

| Sequence | switch fluorescence ratio |
| --- | --- |
| TCGGTTACCT | 1.14 |
| AAGTTGATGA | 1 |
| TTTATGAATA | 0.99 |
| CCACGACGTG | 0.986 |
| AGTCTAGTCC | 1.04 |
| ATATGTGCAA | 1.07 |
| TTTTCATGT | 1.02 |
| GTGATGAATC | 0.931 |
| AAGTTAACGC | 1.03 |
| TCCGAGGGGG | 1.01 |
| CGAGGATTTA | 1.03 |
| GGTGCATAGG | 1.02 |
| AGGGGCCCAA | 0.992 |
| AATATGGTCC | 0.99 |
| TTGTTTAG | 1.07 |
| TCACAATAAG | 1.03 |
| CATGAGAGGG | 1.02 |
| AGTCTCGTTT | 0.987 |
| CCGCACACCA | 2.39 |
| GTTCAGTTTT | 1.03 |
| ACAAGGGTAG | 1 |
| TTATGGATCA | 1.04 |
| GGACACAAGA | 1.03 |
| TGGCATTAGT | 1.04 |
| ATCACCACCC | 1.25 |

| Sequence | switch fluorescence ratio |
| --- | --- |
| ACTAGATGAA | 1.01 |
| TTAGTGGTAA | 1.01 |
| ACGGGATTCA | 1.09 |
| GACAGTCCAA | 0.993 |
| TCATGGGGC | 0.965 |
| ACCCCGAAAG | 1.13 |
| AAAAAGCACA | 1.18 |
| CATTATATAT | 1.02 |
| AAACTCACGC | 1.34 |
| TAACTTGTTT | 1.01 |
| GGTGCCATTC | 0.978 |
| TGAATTTCAC | 0.966 |
| CTAGGAAACT | 1.05 |
| ATGTACTATT | 1.07 |
| TGGTGGACCT | 1.15 |
| CGCCCCAGCT | 1.07 |
| CTATGTGGG | 1.01 |
| GAACGGGGTT | 0.986 |
| GACGTACTTA | 1.57 |
| GTCGCCCTAT | 0.994 |
| CTTGCCTCCC | 1.69 |
| CGTCCCCTA | 1.04 |
| ATAAGAGGC | 1 |
| TAATTATTAC | 1.03 |
| CCACGTACCT | 1.6 |

| Sequence | switch fluorescence ratio |
| --- | --- |
| TACGATGGGC | 1.05 |
| TTCTTATA | 0.977 |
| CGTTTCGTGA | 1.03 |
| TCTCGGTGCT | 0.986 |
| TGCGTCAGCA | 0.972 |
| ATGCTCATTA | 1.03 |
| ATCAGCGTCC | 1.03 |
| CGTACTACCT | 1.21 |
| TTTACAGACA | 1.13 |
| ATAGACTTCC | 1.07 |
| TGAACAGGGT | 0.976 |
| ACGTTGAGGC | 1.12 |
| GAGACTGCGC | 0.99 |
| GGGTGCTAAC | 1.01 |
| TAAAGCCCGA | 1.01 |
| AAGGGTTGTA | 0.993 |
| TATTAAAAGC | 1 |
| CTTGGATATC | 0.996 |
| ATGAGCTCTA | 0.964 |
| TTAGTTCCTA | 1.02 |
| TTTTGGATAC | 1.08 |
| ATACGTCTTA | 0.998 |
| CTCGTCGTGA | 1.03 |
| GGGGGTCACC | 0.979 |
| ACGCATGTTA | 1.04 |

| Sequence | switch fluorescence ratio |
| --- | --- |
| TTACCCCGTA | 0.989 |
| GCGGTAGGCT | 0.989 |
| GGCTATACGC | 2.1 |
| CTACTTTGTT | 0.98 |
| TTATGACTCG | 0.933 |
| GATCATAAAG | 0.994 |
| GGACAATTGG | 1.01 |
| GAAGCCGCGG | 0.923 |
| CCGTGATGAA | 1.14 |
| GTTGCGGGGA | 1.01 |
| GTTCGGCGGT | 1 |
| TCAGGTATTT | 1.03 |
| ATGGTAAGC | 0.975 |
| ACAACAGTAT | 1.03 |
| AGTTAGATGA | 0.976 |
| CGTTTCCCCA | 1.04 |
| GTTGTGGGCA | 0.983 |
| ACAGGCCAAA | 1.29 |
| ATGAGTTGAG | 0.994 |
| TCCTCTGT | 1.67 |
| TCAGAGGGTC | 0.925 |
| GTGTGTTATA | 0.969 |
| CTTTATCTGC | 1.01 |
| TTTGAAGCCC | 1.07 |
| CAGTCCAAAT | 0.969 |
